In the supplement of paper PMC10369915:
The list shows a part of the results. Rule as the data show it: active = 3.2 or more and inactive = the rest. The signal is at background level for most entries.

How the values were obtained:
Assay in all cases: enrichment score (SH2-bound / input frequency) (ratio); bacterial display of known human phosphotyrosine sites (pTyr-Var adds point mutants) read by sequencing; higher = stronger binding; tyrosines were phosphorylated by kinases first
Settings in all cases: peptide library: pTyr-Var
SHP2 C-SH2 domain E139D = biological target: SHP2 C-SH2 domain E139D
[1] = biological target: SHP2 C-SH2 domain wild-type
SHP2 N-SH2 domain L43F = biological target: SHP2 N-SH2 domain L43F
SHP2 N-SH2 domain T42A = biological target: SHP2 N-SH2 domain T42A
SHP2 N-SH2 domain T52S = biological target: SHP2 N-SH2 domain T52S
[2] = biological target: SHP2 N-SH2 domain wild-type

Measured: enrichment score
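Also: displayed peptides selected on beads carrying the immobilized SH2 domain, with library peptides lacking any tyrosine serving as negative controls.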

ADLAKYICENQ [ALB_Y287]
inactive: SHP2 C-SH2 domain E139D 0.854 | [1] 1.23 | SHP2 N-SH2 domain L43F 0.889 | SHP2 N-SH2 domain T42A 0.659 | SHP2 N-SH2 domain T52S 0.775 | [2] 1.08

EKLIQYCQSKG [AKR1B1_Y199]
inactive: SHP2 C-SH2 domain E139D 0.912 | [1] 0.834 | SHP2 N-SH2 domain L43F 0.777 | SHP2 N-SH2 domain T42A 0.929 | SHP2 N-SH2 domain T52S 0.901 | [2] 0.668

LENQTYFRSFE [AKAP9_Y2482_K2484R]
inactive: SHP2 C-SH2 domain E139D 0.911 | [1] 0.768 | SHP2 N-SH2 domain L43F 0.699 | SHP2 N-SH2 domain T42A 0.668 | SHP2 N-SH2 domain T52S 0.709 | [2] 0.861

DCAAIYGNEPE [AKR1A1_Y50]
inactive: SHP2 C-SH2 domain E139D 0.703 | [1] 0.754 | SHP2 N-SH2 domain L43F 0.673 | SHP2 N-SH2 domain T42A 0.635 | SHP2 N-SH2 domain T52S 0.693 | [2] 0.889

VECHPYFTQPK [AKR1D1_Y199]
inactive: SHP2 C-SH2 domain E139D 0.726 | [1] 0.703 | SHP2 N-SH2 domain L43F 0.704 | SHP2 N-SH2 domain T42A 0.727 | SHP2 N-SH2 domain T52S 0.688 | [2] 0.965

RLAKTYKTTLE [ALB_Y377_E378K]
inactive: SHP2 C-SH2 domain E139D 0.521 | [1] 0.508 | SHP2 N-SH2 domain L43F 0.654 | SHP2 N-SH2 domain T42A 0.445 | SHP2 N-SH2 domain T52S 0.343 | [2] 0.39

REDIFYTSKLW [AKR1C2_Y81]
inactive: SHP2 C-SH2 domain E139D 1.02 | [1] 0.952 | SHP2 N-SH2 domain L43F 0.882 | SHP2 N-SH2 domain T42A 1.22 | SHP2 N-SH2 domain T52S 0.963 | [2] 0.861

IVKAFYVRARA [AIPL1_Y268_YF]
inactive: SHP2 C-SH2 domain E139D 0.414 | [1] 0.296 | SHP2 N-SH2 domain L43F 0.258 | SHP2 N-SH2 domain T42A 0.347 | SHP2 N-SH2 domain T52S 0.322 | [2] 0.401

PFNAEYGGGGG [AKR1B10_Y316]
inactive: SHP2 C-SH2 domain E139D 0.172 | [1] 0.74 | SHP2 N-SH2 domain L43F 0.748 | SHP2 N-SH2 domain T42A 0.887 | SHP2 N-SH2 domain T52S 0.716 | [2] 0.608

RELGEYALAEF [ALDH1A3_Y492_YF]
inactive: SHP2 C-SH2 domain E139D 0.867 | [1] 0.668 | SHP2 N-SH2 domain L43F 0.801 | SHP2 N-SH2 domain T42A 0.689 | SHP2 N-SH2 domain T52S 0.641 | [2] 0.685

TLRETYGEMAD [ALB_Y108]
inactive: SHP2 C-SH2 domain E139D 0.511 | [1] 0.697 | SHP2 N-SH2 domain L43F 0.781 | SHP2 N-SH2 domain T42A 0.523 | SHP2 N-SH2 domain T52S 0.665 | [2] 0.797

RGDIFYTSKLW [AKR1C3_Y81_E77G]
inactive: SHP2 C-SH2 domain E139D 0.935 | [1] 0.923 | SHP2 N-SH2 domain L43F 0.777 | SHP2 N-SH2 domain T42A 1.27 | SHP2 N-SH2 domain T52S 0.773 | [2] 0.806

DCAAIYGNEPD [AKR1A1_Y50_E55D]
inactive: SHP2 C-SH2 domain E139D 0.685 | [1] 0.652 | SHP2 N-SH2 domain L43F 0.597 | SHP2 N-SH2 domain T42A 0.552 | SHP2 N-SH2 domain T52S 0.559 | [2] 0.564

LHRAHYDLCHT [AHSG_Y314_R317C]
inactive: SHP2 C-SH2 domain E139D 2.36 | [1] 2.34 | SHP2 N-SH2 domain L43F 2.51 | SHP2 N-SH2 domain T42A 1.91 | SHP2 N-SH2 domain T52S 2.07 | [2] 1.99

SHLEDYPFNAE [AKR1B10_Y310]
inactive: SHP2 C-SH2 domain E139D 0.79 | [1] 0.678 | SHP2 N-SH2 domain L43F 0.587 | SHP2 N-SH2 domain T42A 0.559 | SHP2 N-SH2 domain T52S 0.647 | [2] 0.662

KELAKYYKLHH [AK7_Y390_N389K]
inactive: SHP2 C-SH2 domain E139D 1.5 | [1] 1.15 | SHP2 N-SH2 domain L43F 1.18 | SHP2 N-SH2 domain T42A 1.16 | SHP2 N-SH2 domain T52S 1.39 | [2] 1.3

RHPFFYAPELL [ALB_Y174_YF]
inactive: SHP2 C-SH2 domain E139D 2.08 | [1] 1.91 | SHP2 N-SH2 domain L43F 2.37 | SHP2 N-SH2 domain T42A 2.17 | SHP2 N-SH2 domain T52S 2.16 | [2] 2.46

EKLIQYCQSKS [AKR1B1_Y199_G204S]
inactive: SHP2 C-SH2 domain E139D 0.884 | [1] 0.925 | SHP2 N-SH2 domain L43F 0.828 | SHP2 N-SH2 domain T42A 0.801 | SHP2 N-SH2 domain T52S 0.821 | [2] 0.943

EQLGEYKFQNA [ALB_Y425]
inactive: SHP2 C-SH2 domain E139D 0.844 | [1] 0.78 | SHP2 N-SH2 domain L43F 0.793 | SHP2 N-SH2 domain T42A 0.837 | SHP2 N-SH2 domain T52S 0.933 | [2] 1.17

ELANYYKLHHI [AK7_Y391]
inactive: SHP2 C-SH2 domain E139D 0.869 | [1] 0.763 | SHP2 N-SH2 domain L43F 0.763 | SHP2 N-SH2 domain T42A 0.667 | SHP2 N-SH2 domain T52S 0.822 | [2] 0.9

KASRKYFAMKI [AKT3_Y173_G171R_YF]
inactive: SHP2 C-SH2 domain E139D 0.599 | [1] 0.844 | SHP2 N-SH2 domain L43F 0.715 | SHP2 N-SH2 domain T42A 0.682 | SHP2 N-SH2 domain T52S 0.755 | [2] 0.67

VPHECYAKVFD [ALB_Y394_D389V]
inactive: SHP2 C-SH2 domain E139D 1.03 | [1] 1.26 | SHP2 N-SH2 domain L43F 0.898 | SHP2 N-SH2 domain T42A 0.922 | SHP2 N-SH2 domain T52S 0.953 | [2] 0.957

KASGKYFAMKI [AKT3_Y173_YF]
inactive: SHP2 C-SH2 domain E139D 1.92 | [1] 1.42 | SHP2 N-SH2 domain L43F 1.54 | SHP2 N-SH2 domain T42A 1.57 | SHP2 N-SH2 domain T52S 1.77 | [2] 1.92

KELANYYKLHH [AK7_Y390]
inactive: SHP2 C-SH2 domain E139D 1.23 | [1] 0.96 | SHP2 N-SH2 domain L43F 1.02 | SHP2 N-SH2 domain T42A 0.896 | SHP2 N-SH2 domain T52S 1.15 | [2] 1.19

GIVKAYYVHAR [AIPL1_Y267_R270H]
inactive: SHP2 C-SH2 domain E139D 1.99 | [1] 1.92 | SHP2 N-SH2 domain L43F 1.76 | SHP2 N-SH2 domain T42A 1.39 | SHP2 N-SH2 domain T52S 1.81 | [2] 1.92

DVCKNYTEAKD [ALB_Y343_A344T]
inactive: SHP2 C-SH2 domain E139D 0.58 | [1] 0.64 | SHP2 N-SH2 domain L43F 0.617 | SHP2 N-SH2 domain T42A 0.535 | SHP2 N-SH2 domain T52S 0.747 | [2] 0.694

LIHTKYPQLLP [AHCY_Y143]
inactive: SHP2 C-SH2 domain E139D 1.02 | [1] 0.919 | SHP2 N-SH2 domain L43F 1.15 | SHP2 N-SH2 domain T42A 1.04 | SHP2 N-SH2 domain T52S 1.26 | [2] 0.978

ASRKFYAMKIL [AKT3_Y174_G171R_YF]
inactive: SHP2 C-SH2 domain E139D 0.955 | [1] 1.08 | SHP2 N-SH2 domain L43F 0.923 | SHP2 N-SH2 domain T42A 0.835 | SHP2 N-SH2 domain T52S 1.03 | [2] 0.958

RHPYFYAPELL [ALB_Y174]
inactive: SHP2 C-SH2 domain E139D 1.08 | [1] 0.738 | SHP2 N-SH2 domain L43F 0.907 | SHP2 N-SH2 domain T42A 0.7 | SHP2 N-SH2 domain T52S 0.935 | [2] 1.13

KELAKYFKLHH [AK7_Y390_N389K_YF]
inactive: SHP2 C-SH2 domain E139D 1.02 | [1] 0.693 | SHP2 N-SH2 domain L43F 0.845 | SHP2 N-SH2 domain T42A 0.792 | SHP2 N-SH2 domain T52S 1 | [2] 0.963

GIVKAYFVHAR [AIPL1_Y267_R270H_YF]
inactive: SHP2 C-SH2 domain E139D 2.23 | [1] 2.59 | SHP2 N-SH2 domain L43F 2.58 | SHP2 N-SH2 domain T42A 2.12 | SHP2 N-SH2 domain T52S 2.16 | [2] 2.52

ASGKYYAMKIL [AKT3_Y174]
inactive: SHP2 C-SH2 domain E139D 1.42 | [1] 1.34 | SHP2 N-SH2 domain L43F 1.11 | SHP2 N-SH2 domain T42A 1.12 | SHP2 N-SH2 domain T52S 1.22 | [2] 1.21

AIDVGYRLIDC [AKR1B1_Y40_H42L]
inactive: SHP2 C-SH2 domain E139D 0.775 | [1] 0.994 | SHP2 N-SH2 domain L43F 0.915 | SHP2 N-SH2 domain T42A 1.13 | SHP2 N-SH2 domain T52S 0.722 | [2] 0.87

YALAEYTEVKT [ALDH1A3_Y497]
inactive: SHP2 C-SH2 domain E139D 0.67 | [1] 0.839 | SHP2 N-SH2 domain L43F 0.749 | SHP2 N-SH2 domain T42A 1.23 | SHP2 N-SH2 domain T52S 0.801 | [2] 0.758

IVKAFYVHARA [AIPL1_Y268_R270H_YF]
inactive: SHP2 C-SH2 domain E139D 1.7 | [1] 1.57 | SHP2 N-SH2 domain L43F 1.4 | SHP2 N-SH2 domain T42A 1.41 | SHP2 N-SH2 domain T52S 1.56 | [2] 2.02

DCAAIYGSEPE [AKR1A1_Y50_N52S]
inactive: SHP2 C-SH2 domain E139D 0.675 | [1] 1.34 | SHP2 N-SH2 domain L43F 0.618 | SHP2 N-SH2 domain T42A 0.589 | SHP2 N-SH2 domain T52S 0.718 | [2] 0.69

FPLAEYTEVKT [ALDH1A3_Y497_A493P_YF]
inactive: SHP2 C-SH2 domain E139D 0.893 | [1] 0.81 | SHP2 N-SH2 domain L43F 1.01 | SHP2 N-SH2 domain T42A 1.34 | SHP2 N-SH2 domain T52S 0.891 | [2] 1.17
